This passage reports binding signal results from article PMC12820563, “FoxP3 forms a head-to-head dimer in vivo and stabilizes its multimerization on adjacent microsatellites”.

The list shows a part of the results.

In the assay the target is T1, MBP-FoxP1dN (Mus musculus, UniProt P58462 326-579).
T1 sequence: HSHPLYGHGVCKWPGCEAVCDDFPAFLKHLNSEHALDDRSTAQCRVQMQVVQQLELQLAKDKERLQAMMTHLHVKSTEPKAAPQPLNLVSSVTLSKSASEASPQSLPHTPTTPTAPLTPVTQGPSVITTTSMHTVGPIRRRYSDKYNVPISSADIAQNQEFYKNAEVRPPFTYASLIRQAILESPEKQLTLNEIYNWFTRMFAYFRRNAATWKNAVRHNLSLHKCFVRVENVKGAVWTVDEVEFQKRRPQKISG
Description: PD-seq (MBP pull-down with sequencing); 20 mM Tris-HCl pH 7.5, 100 mM NaCl, 1.5 mM MgCl2, 0.4 uM protein, 0.1 uM dsDNA library, 30 min, room temperature, amylose pull-down; high values mean tight binding. The settings on record: protein: recombinant; tags: His6-MBP; chain copies: 2; dsDNA, one strand shown. In short, it runs like this:
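A degenerate double-stranded DNA library, filled in with Klenow, was added at 0.1 µM to 0.4 µM His6-MBP-tagged mouse FoxP3 or FoxP1 fragment lacking the N-terminus, expressed in E. coli. Incubation lasted 30 min at room temperature in Tris pH 7.5 buffer with NaCl and MgCl2, after which complexes were collected on amylose resin, washed three times, digested with proteinase K to free the DNA, barcoded by PCR and sequenced by Illumina. Binding is the pooled-replicate reads-per-million enrichment of pull-down over input.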
Consider “GATGATTGTTCTCCCAGCTGATGAATTAACTATTTCGAGTAAACAAATTTTCCTAATCTTTCTGTTCAAGCGCCATCTAC”, for which the binding signal was 0.947 RPM ratio (pull-down/input).

Consider “GATGATTGTTCTCCCAGCTGATGAATTATTTTAGTCGAGTAAACAAATTTTCCTAATCTTTCTGTTCAAGCGCCATCTAC”, for which the binding signal is 1.21 RPM ratio (pull-down/input).

As to “GATGATTGTTCTCCCAGCTGATGAATTTGCCGATTCGAGTAAACAAATTTTCCTAATCTTTCTGTTCAAGCGCCATCTAC”, the binding signal is 0.855 RPM ratio (pull-down/input).

Regarding “GATGATTGTTCTCCCAGCTGATGAATTTGCCTTTTCGAGTAAACAAATTTTCCTAATCTTTCTGTTCAAGCGCCATCTAC”, the binding signal was 1.14 RPM ratio (pull-down/input).

With “GATGATTGTTCTCCCAGCTGATGAATTCTCGGTTTCGAGTAAACAAATTTTCCTAATCTTTCTGTTCAAGCGCCATCTAC”, the binding signal is 0.833 RPM ratio (pull-down/input).

On to “GATGATTGTTCTCCCAGCTGATGAATTGAGCTGTTCGAGTAAACAAATTTTCCTAATCTTTCTGTTCAAGCGCCATCTAC”, for which the binding signal is 0.884 RPM ratio (pull-down/input).

For the sequence “GATGATTGTTCTCCCAGCTGATGAATTTGTCTATTCGAGTAAACAAATTTTCCTAATCTTTCTGTTCAAGCGCCATCTAC”, the binding signal is 1.28 RPM ratio (pull-down/input).

Consider “GATGATTGTTCTCCCAGCTGATGAATTTAAACAATCGAGTAAACAAATTTTCCTAATCTTTCTGTTCAAGCGCCATCTAC”, for which the binding signal was 1.66 RPM ratio (pull-down/input).

For “GATGATTGTTCTCCCAGCTGATGAATTAGTACATTCGAGTAAACAAATTTTCCTAATCTTTCTGTTCAAGCGCCATCTAC”, the binding signal is 1.16 RPM ratio (pull-down/input).

Take “GATGATTGTTCTCCCAGCTGATGAATTTAGCGGGTCGAGTAAACAAATTTTCCTAATCTTTCTGTTCAAGCGCCATCTAC”: the binding signal was 0.81 RPM ratio (pull-down/input).

As to “GATGATTGTTCTCCCAGCTGATGAATTCTAGTCTTCGAGTAAACAAATTTTCCTAATCTTTCTGTTCAAGCGCCATCTAC”, the binding signal was 0.776 RPM ratio (pull-down/input).

In the case of “GATGATTGTTCTCCCAGCTGATGAATTTTGTACGTCGAGTAAACAAATTTTCCTAATCTTTCTGTTCAAGCGCCATCTAC”, the binding signal is 1.04 RPM ratio (pull-down/input).

On to “GATGATTGTTCTCCCAGCTGATGAATTATTGCATTCGAGTAAACAAATTTTCCTAATCTTTCTGTTCAAGCGCCATCTAC”, for which the binding signal is 1.66 RPM ratio (pull-down/input).

“GATGATTGTTCTCCCAGCTGATGAATTTGATACCTCGAGTAAACAAATTTTCCTAATCTTTCTGTTCAAGCGCCATCTAC”: the binding signal is 0.899 RPM ratio (pull-down/input).

With “GATGATTGTTCTCCCAGCTGATGAATTTATTTGCTCGAGTAAACAAATTTTCCTAATCTTTCTGTTCAAGCGCCATCTAC”, the binding signal was 1.69 RPM ratio (pull-down/input).

Take “GATGATTGTTCTCCCAGCTGATGAATTAGGTTAGTCGAGTAAACAAATTTTCCTAATCTTTCTGTTCAAGCGCCATCTAC”: the binding signal was 0.893 RPM ratio (pull-down/input).

Turning to “GATGATTGTTCTCCCAGCTGATGAATTCCCTGCTTCGAGTAAACAAATTTTCCTAATCTTTCTGTTCAAGCGCCATCTAC”, the binding signal was 0.847 RPM ratio (pull-down/input).

Consider “GATGATTGTTCTCCCAGCTGATGAATTGAGGACATCGAGTAAACAAATTTTCCTAATCTTTCTGTTCAAGCGCCATCTAC”, for which the binding signal is 0.975 RPM ratio (pull-down/input).

Take “GATGATTGTTCTCCCAGCTGATGAATTTCGACCGTCGAGTAAACAAATTTTCCTAATCTTTCTGTTCAAGCGCCATCTAC”: the binding signal was 0.765 RPM ratio (pull-down/input).

As to “GATGATTGTTCTCCCAGCTGATGAATTACCCGGGTCGAGTAAACAAATTTTCCTAATCTTTCTGTTCAAGCGCCATCTAC”, the binding signal was 0.856 RPM ratio (pull-down/input).

On to “GATGATTGTTCTCCCAGCTGATGAATTTGTGACCTCGAGTAAACAAATTTTCCTAATCTTTCTGTTCAAGCGCCATCTAC”, for which the binding signal was 1.16 RPM ratio (pull-down/input).

“GATGATTGTTCTCCCAGCTGATGAATTAAGAAATTCGAGTAAACAAATTTTCCTAATCTTTCTGTTCAAGCGCCATCTAC”: the binding signal was 0.875 RPM ratio (pull-down/input).

In the case of “GATGATTGTTCTCCCAGCTGATGAATTGTAAGTGTCGAGTAAACAAATTTTCCTAATCTTTCTGTTCAAGCGCCATCTAC”, the binding signal was 1.09 RPM ratio (pull-down/input).

For the sequence “GATGATTGTTCTCCCAGCTGATGAATTACAGGAGTCGAGTAAACAAATTTTCCTAATCTTTCTGTTCAAGCGCCATCTAC”, the binding signal is 0.912 RPM ratio (pull-down/input).

For “GATGATTGTTCTCCCAGCTGATGAATTGTAGACATCGAGTAAACAAATTTTCCTAATCTTTCTGTTCAAGCGCCATCTAC”, the binding signal is 1.21 RPM ratio (pull-down/input).

On to “GATGATTGTTCTCCCAGCTGATGAATTGTGAGGCTCGAGTAAACAAATTTTCCTAATCTTTCTGTTCAAGCGCCATCTAC”, for which the binding signal is 0.942 RPM ratio (pull-down/input).

For the sequence “GATGATTGTTCTCCCAGCTGATGAATTCCCGGGTTCGAGTAAACAAATTTTCCTAATCTTTCTGTTCAAGCGCCATCTAC”, the binding signal is 0.773 RPM ratio (pull-down/input).

“GATGATTGTTCTCCCAGCTGATGAATTATACTGCTCGAGTAAACAAATTTTCCTAATCTTTCTGTTCAAGCGCCATCTAC”: the binding signal was 0.951 RPM ratio (pull-down/input).

On to “GATGATTGTTCTCCCAGCTGATGAATTAGTGAAATCGAGTAAACAAATTTTCCTAATCTTTCTGTTCAAGCGCCATCTAC”, for which the binding signal is 1.1 RPM ratio (pull-down/input).

Turning to “GATGATTGTTCTCCCAGCTGATGAATTAACTGCCTCGAGTAAACAAATTTTCCTAATCTTTCTGTTCAAGCGCCATCTAC”, the binding signal was 0.969 RPM ratio (pull-down/input).

For the sequence “GATGATTGTTCTCCCAGCTGATGAATTAAGACCCTCGAGTAAACAAATTTTCCTAATCTTTCTGTTCAAGCGCCATCTAC”, the binding signal was 0.84 RPM ratio (pull-down/input).

For “GATGATTGTTCTCCCAGCTGATGAATTCTTAGCTTCGAGTAAACAAATTTTCCTAATCTTTCTGTTCAAGCGCCATCTAC”, the binding signal is 0.856 RPM ratio (pull-down/input).
